Article PMC4336329 (PLoS ONE, 2015)
In all, about 310,000 compounds went through this assay and about 2,200 (0.71%) showed an effect of 50% or more. The effect is printed as a negative number. Some of the results follow.

These molecules were tested against human ether-à-go-go-related gene (hERG) potassium channel (human, UniProt Q12809) (assay: primary screen, population patch clamp on CHO cells stably expressing hERG).
Chain of human ether-à-go-go-related gene (hERG) potassium channel (Q12809 whole entry, looked up): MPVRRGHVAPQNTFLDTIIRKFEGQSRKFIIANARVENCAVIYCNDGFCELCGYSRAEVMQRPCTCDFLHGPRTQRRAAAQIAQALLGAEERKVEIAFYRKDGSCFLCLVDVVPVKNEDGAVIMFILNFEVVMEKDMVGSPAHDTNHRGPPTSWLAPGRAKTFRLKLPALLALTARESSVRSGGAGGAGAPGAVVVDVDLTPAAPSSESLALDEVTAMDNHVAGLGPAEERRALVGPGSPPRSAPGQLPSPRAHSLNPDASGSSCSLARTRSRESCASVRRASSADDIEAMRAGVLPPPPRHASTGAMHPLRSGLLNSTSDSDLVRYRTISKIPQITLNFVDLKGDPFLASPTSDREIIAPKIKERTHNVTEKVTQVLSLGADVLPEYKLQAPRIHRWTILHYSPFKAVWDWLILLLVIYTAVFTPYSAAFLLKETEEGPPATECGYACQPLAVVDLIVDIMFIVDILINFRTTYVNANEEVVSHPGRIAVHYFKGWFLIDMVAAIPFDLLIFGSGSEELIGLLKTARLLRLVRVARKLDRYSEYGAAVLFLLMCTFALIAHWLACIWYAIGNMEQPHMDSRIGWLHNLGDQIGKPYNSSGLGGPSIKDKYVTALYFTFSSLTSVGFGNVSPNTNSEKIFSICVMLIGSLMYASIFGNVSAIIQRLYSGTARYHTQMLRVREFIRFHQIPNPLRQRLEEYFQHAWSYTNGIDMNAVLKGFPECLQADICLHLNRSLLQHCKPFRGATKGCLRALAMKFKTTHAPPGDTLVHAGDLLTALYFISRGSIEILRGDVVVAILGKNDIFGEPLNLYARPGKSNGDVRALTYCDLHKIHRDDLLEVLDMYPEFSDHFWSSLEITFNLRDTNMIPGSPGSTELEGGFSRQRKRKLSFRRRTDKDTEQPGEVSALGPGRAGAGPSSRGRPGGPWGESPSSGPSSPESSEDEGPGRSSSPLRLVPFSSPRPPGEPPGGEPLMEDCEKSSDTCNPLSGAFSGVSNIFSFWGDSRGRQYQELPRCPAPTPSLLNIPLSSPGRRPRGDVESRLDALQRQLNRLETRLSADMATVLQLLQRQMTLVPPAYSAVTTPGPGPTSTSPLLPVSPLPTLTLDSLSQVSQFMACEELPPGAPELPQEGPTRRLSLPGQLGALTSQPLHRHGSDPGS

Row | Compound | hERG current change (%, negative = inhibition) at 1uM
1 | N/C(=N\S(=O)(=O)c1cc(C(F)(F)F)cc(C(F)(F)F)c1)c1cccs1 | 14.4%
2 | CCOCCCn1c(SCC(=O)N(C)C2CCS(=O)(=O)C2)nc2ccccc2c1=O (centres unmarked) | -0.296%
3 | COc1ccc(NC(=O)N2C3CCCC2CC(NC(=O)c2ccccc2)C3)cc1 (centres unmarked) | -1.23%
4 | C=C(C)CNC(=S)NNC(=O)c1ccc(Br)cc1 | 2.16%
5 | COc1ccc(OC)c(S(=O)(=O)Nc2ccc(-c3ccc4nnc(C)n4n3)cc2)c1 | 6.77%
6 | CC(NC(=O)c1cccc(N2CCCC2=O)c1)c1ccc2c(c1)OCCO2 (centres unmarked) | 5.41%
7 | CN(Cc1nc(Cc2cccc(F)c2)no1)CC1CCOCC1 | 2.99%
8 | CSCCC1NC(=O)N(CC(=O)Nc2cccc3ccccc23)C1=O (centres unmarked) | 12.5%
9 | Cc1c(C)c2ccc(OCC(=O)NCCc3c[nH]c4ccccc34)c(C)c2oc1=O | 7.72%
10 | COc1ccc(CCNC(=O)C(=O)NN=C2CCCCCCC2)cc1OC | 9.71%
11 | Cc1csc2c(=O)sc(NC(=O)c3ccco3)nc12 | 12.4%
12 | COc1ccc(C(C)NC(=O)c2ccc(Br)cc2)cc1OC (centres unmarked) | 1.56%
13 | Cc1oc(-c2ccc(Cl)cc2)nc1CN1CCC(C(=O)N2CCc3ccccc3C2)CC1 | -56.7%
14 | COc1ccc(NC(=O)CNS(=O)(=O)c2cccs2)c(OC)c1 | 3.03%
15 | COC(=O)CCC(=O)OC1(C)C(=O)C2=CN(C3CC3)C(c3ccc(OC)cc3)=CC2=C(Br)C1=O (centres unmarked) | 12.2%
16 | COc1cc(OC)c(OC)cc1CNCCc1cccc(F)c1.O=C(O)C(=O)O | -4.29%
17 | O=C(Nc1ccccc1)Nc1ccc(Cl)c([N+](=O)[O-])c1 | 14.8%
18 | O=C(c1cccn2c(=O)c3cc4ccccc4cc3nc12)N1CCN(c2ccccc2)CC1 | -2.39%
19 | Cc1ccc(NC(=O)CSc2nc(N)cc(N)n2)cc1S(=O)(=O)N1CCOCC1 | 14.8%

Row | Compound | hERG current change (%, negative = inhibition) at 1uM
20 | CC12CCC(=O)N1C(C(=O)Nc1cccc(S(=O)(=O)N3CCCCCC3)c1)CS2 (centres unmarked) | -29.7%
21 | COc1ccc(N(CC(=O)NN=C2CCCCCCC2)S(=O)(=O)c2ccccc2)cc1Cl | 11.8%
22 | O=C(Nc1ccnc(-c2cccnc2)n1)c1ccc(Cl)c(Cl)c1 | -0.376%
23 | Cc1cc(Cl)ccc1OCc1n[nH]c(=S)n1C1CCCCC1 | 14.2%
24 | O=C1CNCc2[nH]c3ccccc3c2N1c1ccccc1 | -0.52%
25 | CC(C)[C@H](NC(=O)NCCc1ccc(Cl)cc1)C(=O)O | -6.57%
26 | Cc1noc(C)c1S(=O)(=O)N(CC(=O)NC(C)c1ccccc1)c1ccc(C(C)C)cc1 (centres unmarked) | 10.1%
27 | Cc1cc(C)c(NC(=O)CSc2nnc(Cc3cccn3C)n2-c2ccc(F)cc2)c(C)c1 | 9.06%
28 | O=C(O)C1CCN(S(=O)(=O)Cc2ccccc2)CC1 | 14.8%
29 | CCOc1ccc(S(=O)(=O)NCCSCc2ccco2)cc1 | -1.82%
30 | Cc1occc1C(=O)Nc1cc(C(C)(C)C)on1 | -11.3%
31 | O=C(N=C1SC2CS(=O)(=O)CC2N1c1ccc(Br)cc1)C1CCCO1 (centres unmarked) | 9.7%
32 | COc1ccc(N/C=C/C(=O)c2ccc(Oc3ncccn3)cc2)cc1 | 11%
33 | CCOC(=O)CCSc1n[nH]c(=S)s1 | 9.9%
34 | O=C(Nc1ccccc1F)c1ccc(CSc2ncccn2)cc1 | 11.4%
35 | CC(=O)c1cccc(NC=C2C(=O)OC3(CCCCC3)OC2=O)c1 | -10.3%
36 | Cc1cccc(NC(=S)NCCc2ccc(Cl)cc2)c1C | 14.1%
37 | O=C(Cn1ncc2c3ccccc3n(Cc3ccccc3)c2c1=O)NCCN1CCOCC1 | -18%
38 | Cc1ccc(CC2CC(=O)N(c3nc4ccccc4n3C)C2=O)cc1 (centres unmarked) | 1.89%

Row | Compound | hERG current change (%, negative = inhibition) at 1uM
39 | Cc1ccc(C)c(OCC(=O)Nc2ccccc2C(=O)N2CCOCC2)c1 | 15.7%
40 | COc1cccc(NC(=O)NCCCN2CCN(c3ccc(F)cc3)CC2)c1 | -51%
41 | COC(=O)c1ccc(S(=O)(=O)N2CCN(C)CC2)n1C | 12.6%
42 | Cc1ccc(S(=O)(=O)N2CCN(S(=O)(=O)N3CCCCCC3)CC2)cc1 | 17.6%
43 | CC(=O)N1CCC(N(CCCOC(C)C)C(=O)Nc2ccc(C)c(C)c2)CC1 | 1.97%
44 | COc1ccc(C(=O)Nc2ccccc2[N+](=O)[O-])cc1S(=O)(=O)N1CCOCC1 | 7.55%
45 | Cc1cc2cc(CCNC(=O)c3ccc(Br)o3)c(=O)[nH]c2cc1C | -4.97%
46 | COc1ccc(/C=C/C(=O)N(C)C2CCS(=O)(=O)C2)cc1OC (centres unmarked) | 9.69%
47 | O=C(Cc1ccc(Br)cc1)c1ccc(O)cc1O | 14.7%
48 | COC(=O)c1c(C)nn(-c2ccc(F)c(Cl)c2)c1-c1cc(C)on1 | 7.85%
49 | O=C(CNC(=O)c1ccccc1F)OCc1nc2ccc(Cl)cc2n1CCO | 5.8%
50 | O=C(NCC(c1ccco1)N1CCc2ccccc21)c1cccc(F)c1 (centres unmarked) | 4.98%
51 | O=C(N(c1ccccn1)c1ccccn1)C12CC3CC(CC(Cl)(C3)C1)C2 | 19.1%
52 | Cc1cc(=O)oc2cc(OCC(=O)NCCCN3CCCC3=O)c(Cl)cc12 | 8.81%
53 | N/C(=N\OC(=O)c1cccnc1)c1ccc(Cl)cc1Cl | 10.5%
54 | COCCn1c(SCC(=O)c2ccc(Cl)cc2)nnc1C(C)C | 15.3%
55 | CC(=O)Oc1ccc(C2(C)CC(C)(C)NC(=S)N2C)c(OC(C)=O)c1 (centres unmarked) | 8.04%
56 | O=C(C1=C[C@H](c2csc3ccccc23)C[C@H](OCCCCO)O1)N1CCN(Cc2ccccc2)CC1 | 13.7%
